Source: the antibiotic and cytotoxicity screens of Wong et al. (2023)
The other results are listed elsewhere or left out.

System: S. aureus RN4220
Test: growth inhibition call (relative growth <= 0.2)
Details: 50 µM

SMILES	growth inhibition call
NCCO.NCCO.O[AsH]O[AsH]O (centres undefined)	inactive
Cc1ccc(OC(=O)N(C)C[C@H]2OCc3ccccc3-c3c(n(C)c4ccccc34)C(=O)N([C@H](C)CO)C[C@@H]2C)cc1	inactive
NC1(c2ccc(Cl)cc2)CC1	inactive
CC1=C(O)C(=O)C=C2C1=CC=C1C2(C)CCC2(C)C3CC(C)(C(=O)O)CCC3(C)CCC12C (centres undefined)	inactive
OCCN(CCO)CCO	inactive
Cc1c(N)nc([C@H](CC(N)=O)NC[C@@H](N)C(N)=O)nc1C(=O)N[C@H](C(=O)N[C@@H](C)[C@H](O)[C@@H](C)C(=O)N[C@@H](C(=O)NCCc1nc(-c2nc(C(=O)NCCC[S+](C)C)cs2)cs1)[C@@H](C)O)[C@@H](O[C@H]1O[C@H](CO)[C@H](O)[C@@H](O)[C@H]1O[C@H]1O[C@H](CO)[C@@H](O)[C@H](OC(N)=O)[C@@H]1O)c1c[nH]cn1	inactive
CNC(Cc1c[nH]c2ccccc12)C(=O)O (centres undefined)	inactive
O=C1CCN(C(=O)C2CCC2)CC1	inactive
C1COC2(CCNCC2)OC1	inactive
CNc1ccc2oc(C[C@H]3O[C@@]4(CC[C@H]3C)O[C@H]([C@H](C)C(=O)c3ccc[nH]3)[C@H](C)C[C@H]4C)nc2c1C(=O)O	inactive
COC(=O)[C@]1(Cc2ccccc2CN=[N+]=[N-])N=C(c2ccc(OCCCO)cc2)O[C@@H]1c1ccccc1N=[N+]=[N-]	inactive
C[C@@H](N)Cc1ccco1	inactive
CC(C)Oc1ccc(CCN)cc1	inactive
C[C@H]1C(=O)O[C@@H]2CCN3CC=C(COC(=O)[C@](C)(O)[C@]1(C)O)[C@H]23	inactive
